Data reported in PubChem BioAssay AID686979 (National Center for Advancing Translational Sciences (NCATS), 2013).
The whole screen tested about 420,000 compounds, of which about 50,000 (12%) were called active. The shares of active, inactive and inconclusive entries below differ from those in the screen. Calls come from the whole dose curve; as a rule, active = well fitted inhibition curve with a large enough effect; inconclusive = small, poorly fitted or top-dose-only effect; inactive = flat fitted curve, though single readings scatter. No potency is given beside an inconclusive call; the fits are too rough.
% is set by controls: 0 for no effect and ±100 for the full control effect; potency is the fitted concentration of half-maximal effect; tags give direction and shape of the fitted curve.

Assay: qHTS for Inhibitors of human tyrosyl-DNA phosphodiesterase 1 (TDP1): qHTS in cells in presence of CPT; note: nearly all actives have a fitted effect of over 55% in size
Details: chicken DT40 Tdp1-/-;hTDP1 cells + 20 nM CPT, ATP luminescence, 48 h; activity change, negative = growth inhibition: at 46.2 µM (top of the series) unless noted
In short: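 Cell growth measured by CellTiter-Glo luminescence after a minimum 48 h, 37 C compound exposure with 20 nM CPT in Tdp1-knockout DT40 cells stably expressing hTDP1, seeded 400/well; qHTS titration format.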
For `COc1ccccc1NC(=O)C1=C(C)NC(=O)NC1c1cccs1` (centres undefined), the Potency was “inactive”.
In the case of `CC[C@@H]1[C@H]2CCCC(=O)N3CC[C@@H](C[C@@H]1OC(=O)NCc1ccccc1)[C@@H]23`, the Potency is reported as inconclusive [inhibitor, single point].
For `CCCCc1c(O)nc(SCC(=O)NCCc2ccc(OC)c(OC)c2)[nH]c1=O`, the Potency was “inactive”.
With `C=CCn1c(=O)c2ccccc2n2c(SCC(C)=O)nnc12` the Potency was “inactive”.
With `O=C(Cn1c(-c2cccs2)cc2cc(F)ccc21)N1CCCCC1` the Potency was inconclusive [inhibitor, single point].
For `CC(C)c1ccc(NC(=O)C(c2ccc3c(c2)OCO3)N2CCCCC2)cc1` (centres undefined), the Potency was active: 18.4 µM.
With `Cc1ccc(N=Cc2c(O)c3ccccc3oc2=O)cc1F` the Potency was “inactive”.
For `COC(=O)C1=C(C(=O)OC)[C@]2([C@@H]3CCCCN[C@@H](Cc4ccccc4)C(=O)N3Cc3ccccc3)C=C[C@H]1O2`, the Potency was active: 14.6 µM.
With `CC1(C(=O)NS(=O)(=O)c2cccc(Cl)c2)CCN1C(=O)C1(c2ccc(Cl)cc2)CC1` (centres undefined) the Potency was inconclusive [inhibitor, partial curve].
With `C/C=C(\C)C(=O)Nc1cccc(C2=NOC3(C2)C[C@@H](C(N)=O)N(C(=O)c2ccccc2C(=O)c2ccccc2)C3)c1` (some centres undefined) the Potency was inconclusive [inhibitor, single point].
In the case of `CC1(C)c2[nH]c3ccccc3c2C[C@H]2C(=O)N(N)CC(=O)N21`, the Potency is reported as “inactive”.
In the case of `CN(C)c1ccc(NC(=O)CN2CCN(S(=O)(=O)c3cc(Cl)ccc3Cl)CC2)cc1`, the Potency is reported as inconclusive [inhibitor, single point].
With `Cc1csc(CN(C)C(=O)c2sc3ncnc(NCC4CCCO4)c3c2C)n1` (centres undefined) the Potency was inconclusive [inhibitor, single point].
For `COc1ccccc1N(C)S(=O)(=O)c1ccc(C(=O)N(C)Cc2ccc(Cl)s2)cc1`, the Potency was active: 23.1 µM.
For `CC(C)(C)[C@@H]1C=C(C(N)=O)O[C@H](OCCCCO)C1`, the Potency was “inactive”.
For `Fc1ccc(CSc2ncnc3c2ncn3C2CCCCO2)cc1` (centres undefined), the Potency was inconclusive [inhibitor, partial curve].
For `Cc1ccccc1NC(=S)NCc1ccc2c(c1)cc(C)n2C`, the Potency was active: 2.91 µM.
With `C=CC[n+]1ccnc2ccccc21` the Potency was active: 5.01 µM.
With `NC(=O)NNC(=S)Nc1cccc2ccccc12` the Potency was “inactive”.
For `Cc1cc(C)n(CCc2nc(-c3ccc(F)cc3)cs2)n1`, the Potency was inconclusive [inhibitor, single point].
With `CCC(C)C(NS(=O)(=O)c1ccc(C)cc1)C(=O)N1CCOCCOCCOCC1` (centres undefined) the activity change, negative = growth inhibition was inconclusive: -31% [inhibitor].
In the case of `COc1ccc(COc2ccc(S(=O)(=O)N3CCCC3)cc2C(N)=O)cc1F`, the Potency is reported as “inactive”.
In the case of `COc1ccc(N2CC(C(=O)N(CC(C)C)c3c(N)n(Cc4ccccc4)c(=O)[nH]c3=O)CC2=O)c(OC)c1` (centres undefined), the Potency is reported as “inactive”.
In the case of `COc1cccc(C(NC(C)=O)c2nc(-c3cccc4cccnc34)cs2)c1` (centres undefined), the Potency is reported as inconclusive [inhibitor, single point].
In the case of `COc1ccc(CCNC(=O)CSc2ccccc2)cc1OC`, the Potency is reported as “inactive”.
For `CCN1CCC2(CCN(Cc3cn[nH]c3-c3ccc(OC)c(F)c3)C2)C1` (centres undefined), the Potency was inconclusive [inhibitor, single point].
For `CNC(=S)NCCN1CCOCC1`, the Potency was “inactive”.
In the case of `COC(=O)c1ccc(C(=O)NC2CCSc3ccccc32)cc1` (centres undefined), the Potency is reported as “inactive”.
For `CN(C)c1cc(-c2ccccc2)nc(N)n1`, the Potency was inconclusive [inhibitor, partial curve].
For `Cc1c(C(=O)NCc2ccc(OC(C)C)cc2)sc2ncnc(N(C)C3CCCCC3)c12`, the Potency was inconclusive [inhibitor, single point].
In the case of `Cc1csc(-c2nc3ccccc3n2C(C(=O)NC(C)(C)C)c2cc3ccccc3o2)c1` (centres undefined), the Potency is reported as inconclusive [inhibitor, single point].
In the case of `CCOc1ccc(-c2nc(CCl)cs2)cc1OC`, the Potency is reported as active: 10.3 µM.
With `NS(=O)(=O)c1ccc(N/N=C/c2ccc(C(=O)O)cc2)c([N+](=O)[O-])c1` the Potency was “inactive”.
In the case of `CC1(C)CC2CC(C)(CN2S(=O)(=O)c2ccc(C(=O)Nc3ccc(S(=O)(=O)N4CCOCC4)cc3)cc2)C1` (centres undefined), the Potency is reported as active: 3.66 µM.
With `O=C(Nc1ccc(Cl)cc1C(F)(F)F)C(Sc1nnc(-c2cccs2)o1)c1ccccc1` (centres undefined) the Potency was inconclusive [inhibitor, single point].
With `COCCN(CCOC)c1nc(S(=O)(=O)c2ccc(C)cc2)c(Cl)s1` the Potency was inconclusive [inhibitor, single point].
With `O=S(=O)(Nc1nc2ccccc2nc1Cl)c1ccc(Br)cc1` the Potency was inconclusive [inhibitor, single point].
With `COC(=O)c1ccc(NC(=O)Nc2ccc(F)cc2F)cc1` the Potency was active: 8.2 µM.
With `Cc1c(/C=N/n2cnnc2)c2ccccc2n1CCOc1ccccc1` the Potency was inconclusive [inhibitor, single point].
In the case of `O=S(=O)(c1ccc(Oc2ccc(Br)cc2)cc1)N1CCOCC1`, the Potency is reported as active: 16.4 µM.
In the case of `COc1cc(C(=O)NCC(c2ccco2)N2CCc3ccccc32)cc(OC)c1OC` (centres undefined), the Potency is reported as inconclusive [inhibitor, partial curve].
In the case of `CN(CCc1ccccn1)C1CCCN(S(=O)(=O)c2ccccc2Cl)C1` (centres undefined), the Potency is reported as inconclusive [inhibitor, partial curve].
In the case of `Cc1ccc(C(=O)N/C(=C/c2ccc(-c3ccc([N+](=O)[O-])cc3)o2)C(=O)NCCCN(C)C)cc1`, the Potency is reported as active: 20.6 µM.
For `COc1cc(C#Cc2c(-c3ccccc3)n(C)c3ccccc23)cc(OC)c1`, the Potency was inconclusive [inhibitor, single point].
For `O=C(NCC1COc2ccccc2O1)C1CCN(S(=O)(=O)c2cccc3nsnc23)CC1` (centres undefined), the Potency was inconclusive [inhibitor, partial curve].
In the case of `CCCCOc1ccccc1NC(=O)c1ccc(=O)[nH]c1`, the Potency is reported as “inactive”.
With `COc1ccc(N(CC(=O)Nc2cc(OC)ccc2OC)S(=O)(=O)c2c(C)noc2C)cc1` the Potency was inconclusive [inhibitor, single point].
With `O=C(c1ccc(CS(=O)c2ccccc2Cl)o1)N1CCN(c2ccccn2)CC1` (centres undefined) the Potency was active: 3.66 µM.
In the case of `CCOC(=O)c1c(NC(=O)/C=C/c2ccc(Cl)cc2)sc2c1CCC(C)C2` (centres undefined), the Potency is reported as “inactive”.
With `Cc1ccc(C(=O)N(CCCN(C)C)c2nc3ccc(Cl)cc3s2)cc1C` the Potency was inconclusive [inhibitor, single point].
With `CCOc1ncccc1C(=O)Nc1ccccc1N1CCOCC1` the Potency was inconclusive [inhibitor, single point].
For `COc1ccc2oc(C)c(C(=O)c3ccccc3)c2c1`, the Potency was “inactive”.
In the case of `CCOC(=O)c1c(C)oc2nc(C)nc(N3CCN(c4cccc(C(F)(F)F)c4)CC3)c12`, the Potency is reported as active: 9.2 µM.
With `COc1cc(OC)c(-c2nc3ccccc3s2)cc1OC` the Potency was inconclusive [inhibitor, single point].
For `CCOC(=O)c1cccc(NC(=O)CN2CCN(c3ccc(OC)cc3)CC2)c1`, the Potency was “inactive”.
For `Cc1ccc(Nc2nc3ccccc3n3cnnc23)c(Cl)c1`, the Potency was “inactive”.
With `O=C(NCC(c1ccc2c(c1)OCO2)N1CCN(c2ccccc2F)CC1)c1ccccc1F` (centres undefined) the Potency was active: 11.6 µM.
In the case of `O=C(CSc1nnc(-c2ccco2)n1Cc1ccccc1)NCc1ccccc1`, the Potency is reported as “inactive”.
With `Cc1cccc(N2CCN(C(=S)Nc3ccc4nc5n(c(=O)c4c3)CCCCC5)CC2)c1C` the Potency was inconclusive [inhibitor, single point].
For `Cc1ccc2nc(SCc3nnc(-c4cccs4)o3)[nH]c2c1`, the Potency was inconclusive [inhibitor, single point].
For `CN(C)S(=O)(=O)c1cccc(NC(=S)Nc2cc(Cl)cc(Cl)c2)c1`, the Potency was active: 25.9 µM.
For `Cc1ccc(C(=O)OCC(=O)NCc2cc(C)c(O)c(C)c2)cc1S(=O)(=O)N1CCCCC1`, the Potency was inconclusive [inhibitor, single point].
With `NC(=O)CC(NC(=O)c1ccc(Cl)cc1)C(=O)NCCc1ccc(S(N)(=O)=O)cc1` (centres undefined) the Potency was “inactive”.
With `COCCn1c(CNc2ccc(F)cc2)nnc1SCC(=O)Nc1ccc(OC)cc1OC` the Potency was inconclusive [inhibitor, partial curve, poor fit].
With `Cc1ccccc1C(=O)n1nc(-c2ccco2)nc1NCc1cccs1` the Potency was active: 13 µM.
In the case of `Cc1ccc(OCc2cc(C(=O)NC3CCCCC3)no2)cn1`, the Potency is reported as active: 13 µM.
With `CC(C)(C)C(c1nc2ccccc2[nH]1)n1c(-c2ccsc2)nc2ccccc21` (centres undefined) the Potency was inconclusive [inhibitor, single point].
With `CCCCn1nnnc1C(c1cc2ccccc2o1)N1CCCC1` (centres undefined) the Potency was inconclusive [inhibitor, single point].
With `Cc1cccc(NC(=O)c2cccc(S(=O)(=O)NCc3ccccc3)c2)n1` the Potency was inconclusive [inhibitor, partial curve].
With `Cc1cc(C(=O)CN2C(=O)C3CC=CCC3C2=O)c(C)n1-c1ccccc1` (centres undefined) the Potency was active: 23.1 µM.
With `O=C(N/N=C/c1ccc(O)c(O)c1)NC12CC3CC(CC(C3)C1)C2` the Potency was active: 11.6 µM.
In the case of `O=C(C[n+]1cccc(C(=O)Nc2ccccc2)c1)c1ccc([N+](=O)[O-])cc1`, the Potency is reported as inconclusive [inhibitor, single point].
In the case of `CC(C)(C)c1ccc(CC(=O)N2CCC2(C)C(=O)NCc2cccc3ccccc23)cc1` (centres undefined), the Potency is reported as active: 23.1 µM.
In the case of `COc1cc(OC)nc(Nc2nc(C(C)N)cs2)n1` (centres undefined), the Potency is reported as inconclusive [inhibitor, single point].
